The whole screen tested about 310,000 compounds, of which about 2,200 (0.71%) showed an effect of 50% or more. Effects have a minus sign here. Some of the results follow.
What follows are molecules tested against human ether-à-go-go-related gene (hERG) potassium channel (human, UniProt Q12809) (assay: primary screen, population patch clamp on CHO cells stably expressing hERG).
Sequence of human ether-à-go-go-related gene (hERG) potassium channel (Q12809 whole entry, looked up): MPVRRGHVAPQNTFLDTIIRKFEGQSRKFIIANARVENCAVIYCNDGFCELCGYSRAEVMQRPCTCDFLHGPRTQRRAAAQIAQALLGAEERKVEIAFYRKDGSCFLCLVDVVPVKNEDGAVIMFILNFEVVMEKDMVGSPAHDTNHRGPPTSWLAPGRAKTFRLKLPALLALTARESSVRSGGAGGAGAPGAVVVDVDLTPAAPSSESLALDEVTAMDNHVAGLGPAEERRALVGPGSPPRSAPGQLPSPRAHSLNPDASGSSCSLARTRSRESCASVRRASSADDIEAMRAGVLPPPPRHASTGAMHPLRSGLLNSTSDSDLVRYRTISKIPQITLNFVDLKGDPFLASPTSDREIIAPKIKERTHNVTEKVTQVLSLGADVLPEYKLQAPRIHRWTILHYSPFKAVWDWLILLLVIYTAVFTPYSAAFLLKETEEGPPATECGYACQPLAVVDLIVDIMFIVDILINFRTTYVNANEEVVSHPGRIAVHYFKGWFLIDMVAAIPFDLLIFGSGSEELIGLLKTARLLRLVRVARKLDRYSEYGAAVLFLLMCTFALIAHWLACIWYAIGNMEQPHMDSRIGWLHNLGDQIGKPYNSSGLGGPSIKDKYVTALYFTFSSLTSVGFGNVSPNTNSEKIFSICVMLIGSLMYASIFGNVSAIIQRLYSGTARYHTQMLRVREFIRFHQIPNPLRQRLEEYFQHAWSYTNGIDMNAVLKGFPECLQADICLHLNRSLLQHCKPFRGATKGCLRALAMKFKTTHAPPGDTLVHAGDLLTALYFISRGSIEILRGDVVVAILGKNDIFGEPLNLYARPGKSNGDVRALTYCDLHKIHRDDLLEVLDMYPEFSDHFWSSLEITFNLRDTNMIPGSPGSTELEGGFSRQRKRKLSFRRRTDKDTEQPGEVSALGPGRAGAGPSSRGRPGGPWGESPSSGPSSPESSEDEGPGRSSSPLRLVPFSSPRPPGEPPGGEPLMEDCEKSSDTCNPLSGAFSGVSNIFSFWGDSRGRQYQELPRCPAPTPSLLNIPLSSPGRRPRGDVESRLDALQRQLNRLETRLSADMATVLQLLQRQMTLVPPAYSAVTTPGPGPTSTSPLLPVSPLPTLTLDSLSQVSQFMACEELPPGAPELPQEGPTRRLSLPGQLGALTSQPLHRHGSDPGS

Compound | hERG current change (%, negative = inhibition) at 1uM [%]
CCOc1ccc(Br)cc1S(=O)(=O)Nc1cccc(S(=O)(=O)N(C)C)c1 | 1.93
CC(c1ccccc1)n1c(Cn2ncc3ccccc3c2=O)n[nH]c1=S (centres unmarked) | 1.65
O=C(CSc1nncs1)NC(=O)Nc1ccc2c(c1)OCCO2 | -0.386
O=C(COC(=O)/C=C/c1ccccc1)Nc1ccc(Cl)cn1 | 7.79
CCn1c(=O)c(C(=O)Nn2c(C)nc3ccccc3c2=O)c(O)c2ccccc21 | 8.77
Cc1c(-c2ccccc2)[n+](=O)c(-c2ccco2)c(C)n1[O-] | 12.2
COC(=O)CCCCCCCCCC[N+]1(C)CCCCC1.[I-] | 0.673
Cc1nc(N)c(C#N)c(-c2ccc3c(c2)OCO3)c1C | 17.7
CCOC(=O)Nc1ccc2c(c1)nc1n2CCN(CCOC)C1 | 16.1
COc1ccc(OC)c(N)c1.Cl | 17.5
CCOc1ccc2cc(/C=C/C(=O)c3ccco3)c(Cl)nc2c1 | 14.5
Cc1ccc(/C=C/C(=O)N2CCCC(C)C2)cc1 (centres unmarked) | 11.5
O=Nc1ccc(NOC(=O)c2ccccc2Br)cc1 | 9.81
CC(=O)N(O)CCCCCNC(=O)CCC(=O)N(O)CCCCCNC(=O)CCC(=O)N(O)CCCCCN.CS(=O)(=O)O | 12.6
CCC(CC)C(=O)c1c[nH]c(C(=O)NCc2ccccn2)c1 | 8.96
O=C(NC1CCCC1)C(c1ccncc1)N(CCCN1CCOCC1)C(=O)c1ccc(-c2ccccc2)[nH]1 (centres unmarked) | -4.48
COc1cccc(NC(=O)CSCC(=O)Nc2ccccc2)c1 | 1.88
O=C(NCc1ccc2c(c1)OCO2)c1ccc(CS(=O)(=O)Cc2cccc(Cl)c2)o1 | 11.3
CCC(=O)Nc1c2c(nn1-c1ccc(C)cc1C)CSC2 | 12.8
CCOc1ccc(-n2ccnc2)nn1 | 5.02
O=C1/C(=C\c2ccc(Br)o2)SC(=Nc2ccccc2)N1c1ccccc1 | 4.22
CCOC(=O)c1c(C)nc2cc(C)cc(C)n12 | 12.1
CN1CCCC(C(O)(c2ccccc2)c2ccccc2)C1 (centres unmarked) | 15
CCOc1c(Br)cc(/C=C2\N=C(C)OC2=O)cc1Br | 11.1
CCc1cccc(CC)c1-n1c(SCC(=O)c2c(N)n(C)c(=O)n(C)c2=O)nnc1-c1cccnc1 | 0.941
CCC(C)(C)n1nnnc1C(c1ccc(F)cc1)N1CCN(C(=O)c2ccco2)CC1 (centres unmarked) | 2.55

Reference: article PMC4336329 (PLoS ONE, 2015)
